Experimental findings from PubChem BioAssay AID1845210 (Molecular Pharmacology Branch, DTP, NCI, 2023) are described below.

The assay relates to NCI-H226 complex tumor spheroids, viability. Briefly: Anticancer human tumor NCI-H226 cell line growth inhibition.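 Note: spheroids exposed to compound for 7 days; 100% = DMSO vehicle control viability.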 As to conditions: stronger effect = lower value. The source says:
Multicellular complex tumor spheroid response to DNA repair inhibitors in combination with DNA-damaging drugs
This study explores the anticancer activities of DNA-damaging drugs and inhibitors of DNA damage repair, both as single agents and in combinations. Complex tumor spheroids comprised of malignant cells, endothelial cells and mesenchymal stem cells served as an in vitro model for human solid tumors. This model system incorporates physiologically relevant features and patient-derived or established malignant cell lines with clinically relevant genetic alterations from many tumor types. Twenty-six patient-derived or established malignant cell lines were evaluated representing sarcoma, melanoma, small cell lung cancer (SCLC), non-small cell lung cancer (NSCLC), as well as bladder, ovarian and pancreatic cancers. The concentration ranges selected for each drug and investigational agent were based upon clinically achievable concentrations if the clinical Cmax of the agent was known.
Compounds. The drugs and compounds olaparib (NSC753686), talazoparib (NSC767125), berzosertib (NSC777718), elimusertib (NSC800525), nedisertib (NSC802822), VX-984 (NSC792969), AZD-1390 (NSC803789), temozolomide (NSC362856), topotecan (NSC609699), trabectedin (NSC813783), staurosporine (NSC755774), and gemcitabine (NSC613327) were obtained from the National Cancer Institute (NCI) Developmental Therapeutics Program Chemical Repository. The FDA-approved anticancer drug set is available from the Developmental Therapeutics Program at https://dtp.cancer.gov/organization/dscb/obtaining/available_plates.htm. […] The stock solutions were prepared in dimethyl sulfoxide (DMSO, Sigma-Aldrich, St. Louis, MO, cat. D2650) at 400-fold the tested concentration and stored at -70 degrees C. Prior to their use, the stock solutions were diluted in fresh medium and the final DMSO concentration in the assay was 0.25% (v/v). All drugs and investigational agents were tested over a range starting from a high concentration at or near the clinical Cmax and decreasing in half-log increments. If the clinical Cmax for an agent had not been determined, the highest concentration tested was 10 microM.
Cell Lines. The patient-derived cancer cell (PDC) lines: 156681-154-R-J1-PDC, 283228-195-R-J1-PDC, 287954-098-R-J1-PDC, 292921-168-R-J2-PDC, 349418-098-R-PDC, 425362-245-T-J1-PDC, 556581-035-R-J1-PDC, and BL0293-F563-PDC were received from the NCI Patient-Derived Models Repository (PDMR, https://pdmr.cancer.gov). The established cell lines HS-SY-2 (RRID:CVCL_8719), MPNST, and SYO-1 (RRID:CVCL_7146) were obtained from the Sloan Kettering Institute. The alveolar soft parts sarcoma cell line ASPS-1 (RRID:CVCL_S738) was established at the NCI and grown from internal seed stocks. The following established cell lines were purchased from the American Type Culture Collection (ATCC, Manassas, VA): G-401 (ATCC, cat. CRL-1441, RRID:CVCL_0270), SW982 (ATCC, cat. HTB-93, RRID:CVCL_1734), VA-ES-BJ (ATCC, cat. CRL-2138, RRID:CVCL_1785), NCI-H719 (ATCC, cat. CRL-5837, RRID:CVCL_1582), NCI-H196 (ATCC, cat. CRL-5823, RRID:CVCL_1509), NCI-H841 (ATCC, cat. CRL-5845, RRID:CVCL_1595), NCI-H1618 (ATCC, cat. CRL-5879, RRID:CVCL_1480), NCI-H1876 (ATCC, cat. CRL-5902, RRID:CVCL_1503), DMS 114 (ATCC, cat. CRL-2066; RRID:CVCL_1174), NCI-H211 (ATCC, cat. CRL-5824; RRID:CVCL_1529), and SW 1271 (ATCC, cat. CRL-2177, RRID:CVCL_1716). The small cell lung cancer cell line COR-L88 was purchased from Sigma-Aldrich (cat. 92031917-1VL, RRID:CVCL_1141). The non-small cell lung cancer cell lines NCI-H226 (RRID:CVCL_1544) and NCI-H322M (RRID:CVCL_1557) were established at the NCI and grown from internal seed stocks. Pooled donor human umbilical vein endothelial cells (HUVEC, Lonza, cat. CC-2519) and human mesenchymal stem cells (hMSC, Lonza, cat. PT-2501) were purchased from Lonza (Walkersville, MD).
Cell Culture. All cells were maintained in an incubator at 37 degrees C and 5% CO2 with 95% humidity. […]

The source holds more than one record for some entries. This is not the full list of results. There may be further records. The values listed for one entry are repeats in other runs, samples, wells, individuals or studies. Counts like (3×) say how often a value occurs here.

Take `Cn1nnc2c(C(N)=O)ncn2c1=O`: the viability, T/C (compound alone 1 µM) is recorded as 96.8, 102, 99.6, 114, 104, 98.3, 109, 112, 107, 126%.

Regarding `CC[C@@]1(O)C(=O)OCc2c1cc1n(c2=O)Cc2cc3c(CN(C)C)c(O)ccc3nc2-1`, the viability, T/C (compound alone 0.00949 µM) was 99.9, 96.9, 95.8, 81.4, 103, 77.1, 92.3, 89.4, 102, 92.7%. For the molecule `CC(C)n1c(=O)n(C)c2cnc3cc(F)c(-c4ccc(OCCCN5CCCCC5)nc4)cc3c21`, for the setting “compound alone 10 µM”, the viability, T/C was 4.45%, 35%, 51.2%. On to `COc1cc2c(cc1O)CCNC21CSC2c3c(OC(C)=O)c(C)c4c(c3C(COC1=O)N1C(O)C3Cc5cc(C)c(OC)c(O)c5C(C21)N3C)OCO4` (stereo unspecified), for which the viability, T/C is 107 (2×), 109, 77.1, 87.4, 101, 116, 118, 110% (compound 94.9 pM); 114 (2×), 123, 93, 124, 117 (2×), 112, 134, 121% (compound alone 0.0003 µM); 119, 83.4, 88.5, 113 (2×), 107 (2×), 106, 118, 103% (compound alone 0.000949 µM).
